assay: soluble on expression in E. coli; label from the status in PepcDB or PDB records

| Sequence | soluble on expression in E. coli |
| --- | --- |
| AHHHHHHGSAKRFGYSFQNFDPKRMARASARDLRISPKLAVEVCRELRGMMLNDALRYLDDVIALKRPVPLKRYNDSQGHKPGKGFGPGRYPVKVAKAIKKVLLNVKNNAVQKGLDPDKLKIIHIAAHKGPVLRGWYPRAFGRATPFNEQTTHIEVVVEEIRR | not soluble |
| AHHHHHHGSGDPKRQRKKYETPPHPWIKERLDRERVLMDKYELKNKKELWKHETQLKNFRRRARRLLAARGKQAEIEREQLLARLKRLGLLPEDAVLDDVLSLTIEDILERRLQTIVYKKGLARTMRQARQLIVHGHIEVNGQIIRSPSYLVLKEEEDTITYARTSPFANPQHPERMMIEKAKQGGEA | not soluble |
| FPVSSKEKNTKTVQDYLEKFYQLPSNQYQSTRKNGTNVIVEKLKEMQRFFGLNVTGKPNEETLDMMKKPRCGVPDSGGFMLTPGNPKWERTNLTYRIRNYTPQLSEAEVERAIKDAFELWSVASPLIFTRISQGEADINIAFYQRDHGDNSPFDGPNGILAHAFQPGQGIGGDAHFDAEETWTNTSANYNLFLVAAHEFGHSLGLAHSSDPGALMYPNYAFRETSNYSLPQDDIDGIQAIYGLSSNPIQPTGPSTPKPCDPSLTFDAITTLRGEILFFKDRYFWRRHPQLQRVEMNFISLFWPSLPTGIQAAYEDFDRDLIFLFKGNQYWALSGYDILQGYPKDISNYGFPSSVQAIDAAVFYRSKTYFFVNDQFWRYDNQRQFMEPGYPKSISGAFPGIESKVDAVFQQEHFFHVFSGPRYYAFDLIAQRVTRVARGNKWLNCRYG | soluble |
| MAAGGTGGLREEQRYGLSCGRLGQDNITVLHVKLTETAIRALETYQSHKNLIPFRPSIQFQGLHGLVKIPKNDPLNEVHNFNFYLSNVGKDNPQGSFDCIQQTFSSSGASQLNCLGFIQDKITVCATNDSYQMTRERMTQAEEESRNRSTKVIKPGGPYVGKRVQIRKAPQAVSDTVPERKRSTPMNPANTIRKTHSSSTISQRPYRDRVIHLLALKAYKKPELLARLQKDGVNQKDKNSLGAILQQVANLNSKDLSYTLKDYVFKELQRDWPGYSEIDRRSLESVLSRKLNPSQNATGTSRSESPVCSSRDAVSSPQKRLLDSEFIDPLMNKKARISHLTNRVPPTLNGHLNPTSEKSAAGLPLPPAAAAIPTPPPLPSTYLPISHPPQIVNSNSNSPSTPEGRGTQDLPVDSFSQNDSIYEDQQDKYTSRTSLETLPPGSVLLKCPKPMEENHSMSHKKSKKKSKKHKEKDQIKKHDIETIEEKEEDLKREEEIAKLNNSSPNSSGGVKEDCTASMEPSAIELPDYLIKYIAIVSYEQRQNYKDDFNAEYDEYRALHARMETVARRFIKLDAQRKRLSPGSKEYQNVHEEVLQEYQKIKQSSPNYHEEKYRCEYLHNKLAHIKRLIGEFDQQQAESWS | not soluble |
| MAIWQGRSLKKPSGGRIVLARKKRKRELGREPSNTRVAEQDKRKIIRTYGGNRKVRLTAAAYANVFDKSGKGRKVRIIRVIENPANRQFARRNIITKGAIIETEIGKAKVTSRPGQDGVVNAILLEEMAGDPLEHHHHHH | soluble |
| MATRTQFENSNEIGVFSKLTNTYCLVAVGGSENFYSAFEAELGDAIPIVHTTIAGTRIIGRMTAGNRRGLLVPTQTTDQELQHLRNSLPDSVKIQRVEERLSALGNVICCNDYVALVHPDIDRETEELISDVLGVEVFRQTISGNILVGSYCSLSNQGGLVHPQTSVQDQEELSSLLQVPLVAGTVNRGSSVVGAGMVVNDYLAVTGLDTTAPELSVIESIFRLQDAQPESISGNLRDTLIETYS | soluble |
| MGSDKIHHHHHHVIDADKLIFSSSSAEIITQDAVVTFLLQLYFNLTKSSANNMITIKKGLDLPIAGKPEQVIHNGNAVKEVALLGEEYVGMRPSMKVREGDVVKKGQVLFEDKKNPGIVFTAPASGTVTAINRGAKRVLQSVVIKVEGNEQITFTQYNEDELKKLTSDQVRQNLQSSGLWTALRTRPFSKVPASDAVPSSIFVNAMDTNPLSANPEIVLKEHWQDFTDGLTVLSRLHEGKLHLCKAGDSNIPTIDLPNLAVHDFSGPHPAGLSGTHIHFIDPVSVTKSVWYLNYQDVIAIGKLFTTGEIYTDRVVSLAGPQVKNPRLIRTQLGANLSHLTENELSAGENRVISGSVLSGNTAIGPYNYLGRYALQVSVIAEGREKEFLGWIMPGKNKFSITRTVLGHFSSKLFNFTSAVNGGHRAMVPIGAYERVVPLDIIPTLLLRDLASGDTDSAQALGCLELDEEDLALCTFVCPGKNEYGPMLRAALDKIEKEG | not soluble |
| MNKRRAKGKSHSIRPARAGAPKWVRLTREEVEMLVEELAKRGYTPSMIGIILRDQYGIPLVKQIVGKKVTQILEERGLAPQIPEDLFNLIRKAVNVRRHINEYPRDKTAKKGLEEIESKIRRLTRYYKGIGKLPQEWVYDPAKAELLVAGAS | not soluble |
| MPGDSLTSSSFMPDGGAETSSSSQLGGSAHGAIGTKPDAGVQFQCPVRPNHGVEGRSILLRANHFAVRIPGGSVQHYQIDVFPDKCPRRVNREVIGCLISSFSKYFTNIRPVYDGKRNMYTREPLPIGTEPMNFEVTLPGDSAVERKFSVTMKWIGQVCLSALDDAMEGRVRQVPHEAVQSIDVILRHLPSLKYTPVGRSFFTPPGVMKPGMQMHQESKLGGGREVWFGFHQSVRPSQWKMMLNIDVSATAFYRAMPVIEFVAEVLELPVQALAERRALSDAQRVKFTKEIRGLKIEITHCGAVRRKYRVCNVTRRPAQTQTFPLQLETGQTIECTVAKYFFDKYRIQLKYPHLPCLQVGQEQKHTYLPPEVCDIVPGQRCLKKLTDVQTSTMIKATARSAPEREREICKLVSKAELSADPFAHEFGITINPAMTEVKGRVLSAPKLLYGGRHRATTALPNQGVWDMRGKQFHTGMEVRTWAIACFAQQSHVKENDLRMFTTQLQRISTDAGMPIIGTPMFCKYASGVEQVEPMFKYLKQTYSAIQLIVVVLPGKTPIYAEVKRVGDTVLGIATQCVQAKNAIRTTPQTLSNLCLKMNVKLGGVNSILLPNVRPRIFNEPVIFLGCDITHPAAGDTRKPSIAAVVGSMDAHPSRYAATVRVQQHRQEIITDLTYMVRELLVQFYRNTRFKPARIVVYRDGVSEGQLFNVLQYELRAIREACVMLESGYQPGITFIAVQKRHHTRLFAADKADQVGKAFNIPPGTTVDVGITHPTEFDFFLCSHAGIQGTSRPSHYHVLWDDNDLTADELQQLTYQMCHTYVRCTRSVSIPAPAYYAHLVAFRARYHLVDRDHGSGEEGSQPSGTSSEDTTLSSMAKAVQVHPDSNNVMYFA | not soluble |
| MPYKLKKEKEPPKVAKCTAKPSSSGKDGGGENTEEAQPQPQPQPQPQAQSQPPSSNKRPSNSTPPPTQLSKIKYSGGPQIVKKELFIQKLRQCCVLFDFVSDPLSDLKFKEVKRAGLNEMVEYITHSRDVVTEAIYPEAVTMFSVNLFRTLPPSSNPTGAEFDPEEDEPTLEAAWPHLQLVYEFFLRFLESPDFQPNIAKKYIDQKFVLALLDLFDSEDPRERDFLKTILHRIYGKFLGLRAYIRRQINHIFYRFIYETEHHNGIAELLEILGSIINGFALPLKEEHKMFLIRVLLPLHKVKSLSVYHPQLAYCVVQFLEKESSLTEPVIVGLLKFWPKTHSPKEVMFLNELEEILDVIEPSEFSKVMEPLFRQLAKCVSSPHFQVAERALYYWNNEYIMSLISDNAARVLPIMFPALYRNSKSHWNKTIHGLIYNALKLFMEMNQKLFDDCTQQYKAEKQKGRFRMKEREEMWQKIEELARLNPQYPMFRAPPPLPPVYSMETETPTAEDIQLLKRTVETEAVQMLKDIKKEKVLLRRKSELPQDVYTIKALEAHKRAEEFLTASQEAL | not soluble |
| RTGRFGPRYGLKIRVRVADVEIKHKKKHKCPVCGFKKLKRAGTGIWMCGHCGYKIAGGCYQPETVAGKAVMKA | soluble |
